Here are results for 57 molecules from PMC4336329 (PLoS ONE, 2015).

In all, about 310,000 compounds went through this assay and about 14,000 (4.5%) showed an effect of 50% or more. Effects have a minus sign here. The list shows a part of the results.
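Note: peak tail current of the secondary pulse compared with the same well before compound.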

human ether-à-go-go-related gene (hERG) potassium channel, sequence (Q12809 whole entry, looked up): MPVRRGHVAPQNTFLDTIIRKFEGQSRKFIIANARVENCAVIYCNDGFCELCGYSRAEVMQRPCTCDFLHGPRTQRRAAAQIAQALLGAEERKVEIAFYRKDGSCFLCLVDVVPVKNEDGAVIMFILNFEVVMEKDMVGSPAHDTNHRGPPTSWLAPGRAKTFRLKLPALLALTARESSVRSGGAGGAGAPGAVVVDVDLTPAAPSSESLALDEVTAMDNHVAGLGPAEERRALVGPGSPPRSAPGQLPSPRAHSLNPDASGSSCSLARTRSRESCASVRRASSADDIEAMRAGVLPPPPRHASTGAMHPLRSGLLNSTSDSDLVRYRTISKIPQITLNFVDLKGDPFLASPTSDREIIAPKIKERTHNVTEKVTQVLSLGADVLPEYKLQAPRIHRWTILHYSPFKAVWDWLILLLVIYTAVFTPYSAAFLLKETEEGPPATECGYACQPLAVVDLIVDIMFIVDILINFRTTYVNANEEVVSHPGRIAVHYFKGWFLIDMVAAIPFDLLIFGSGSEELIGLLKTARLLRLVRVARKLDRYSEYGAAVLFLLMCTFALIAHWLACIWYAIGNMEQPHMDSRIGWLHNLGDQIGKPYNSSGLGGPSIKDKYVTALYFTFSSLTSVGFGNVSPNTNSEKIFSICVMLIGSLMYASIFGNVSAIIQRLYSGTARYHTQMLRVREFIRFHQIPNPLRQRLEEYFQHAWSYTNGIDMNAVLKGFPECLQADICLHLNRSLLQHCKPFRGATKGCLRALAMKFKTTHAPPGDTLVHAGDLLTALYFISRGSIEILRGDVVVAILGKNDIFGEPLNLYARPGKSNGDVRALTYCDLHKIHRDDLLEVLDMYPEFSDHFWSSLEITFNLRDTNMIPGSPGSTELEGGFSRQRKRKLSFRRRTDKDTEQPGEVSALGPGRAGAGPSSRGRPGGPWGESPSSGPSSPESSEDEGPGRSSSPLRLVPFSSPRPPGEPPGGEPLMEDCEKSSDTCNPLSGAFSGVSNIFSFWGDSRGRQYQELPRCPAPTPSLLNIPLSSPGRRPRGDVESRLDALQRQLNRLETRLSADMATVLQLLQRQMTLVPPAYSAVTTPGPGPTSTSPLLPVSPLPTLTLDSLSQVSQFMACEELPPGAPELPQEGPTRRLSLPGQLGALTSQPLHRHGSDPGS

This assay concerns the target human ether-à-go-go-related gene (hERG) potassium channel (human, UniProt Q12809). In words: primary screen, population patch clamp on CHO cells stably expressing hERG.
As for `Cc1ccc(C)c(NC(=O)C2CC=CCC2C(=O)O)c1` (stereo not drawn), the “hERG current change (%, negative = inhibition) at 10uM” value is reported as 20%.
On to `COc1ccc(CCNC(=O)/C=C/c2ccc3ccccc3n2)cc1OC`, for which the “hERG current change (%, negative = inhibition) at 10uM” value turned out to be 8.48%.
`Cc1ccc2cc(C)c(SCC(=O)Nc3ccc(S(=O)(=O)N4CCCC4)cc3)nc2c1`: the “hERG current change (%, negative = inhibition) at 10uM” value amounted to 11.7%.
In the case of `COc1ccc(C)c2sc(N(CCCN(C)C)C(=O)CS(=O)(=O)c3ccc(F)cc3)nc12.Cl`, the “hERG current change (%, negative = inhibition) at 10uM” value is -60.3%.
Under `CC(C)N1C(=O)CSC1c1ccc(Br)cc1` (stereo not drawn) stands 5.07%; under `Cc1cccc(C2=NC(C(F)(F)F)(C(F)(F)F)c3c(n(-c4ccc(F)cc4)c(=O)[nH]c3=O)N2)c1`, -2.79%; under `CCOC(=O)CN(C(=O)CSc1nnc(CNc2ccc(C)cc2C)n1CC)c1ccccc1`, -24.7%.
The figure for `COC(=O)c1ccc(C(=O)Nc2ccc(N)cc2N)cc1` is 8.54%; for `Cc1ccc(S(=O)(=O)N(CC(=O)N2CCC(C(N)=O)CC2)c2cccc(C(F)(F)F)c2)cc1` it is -3.78%.
Turning to `CN(C)/C(=N\S(=O)(=O)c1ccccc1)c1ccccc1`, the “hERG current change (%, negative = inhibition) at 10uM” value is 10.6%.
The figure for `COCCCn1c(C2CCCCC2)nc2oc3cc(OC)ccc3c(=O)c2c1=O` is -3.91%; for `CC(C)(C)SCCNC(=O)Nc1ccccc1` it is 5.18%.
As to `CC(C)c1ccc(NC(=O)C(=O)C2C(=O)Nc3ccccc32)cc1` (stereo not drawn), the “hERG current change (%, negative = inhibition) at 10uM” value was -1.62%.
On to `O=C(O)c1ccc(-n2cncn2)c([N+](=O)[O-])c1`, for which the “hERG current change (%, negative = inhibition) at 10uM” value came out at 11.6%.
On to `CS(=O)(=O)N(CC(=O)NCc1ccco1)c1ccc(Cl)cc1Cl`, for which the “hERG current change (%, negative = inhibition) at 10uM” value turned out to be 8.43%.
The figure for `Cc1nc2ccccc2c(=O)n1/N=C/c1cccnc1` is 4.39%; for `COc1cc(OC)cc(N(C(=O)c2ccco2)C(C(=O)NC2CCCC2)c2ccc(N(C)C)cc2)c1` (stereo not drawn) it is -31.5%.
The figure for `Cc1ccc(N(CC(=O)NC(C)(C)C)C(=O)CCC(=O)Nc2nccs2)c(C)c1` is 10.9%.
With `COc1ccc([C@@H]2[C@@H](C(=O)C(C)(C)C)N3N=Cc4ccccc4[C@@H]3C23C(=O)OC(C)(C)OC3=O)cc1OC`, the “hERG current change (%, negative = inhibition) at 10uM” value is reported as -9.52%.
Turning to `CC(C)NC(=S)N/N=C1\CCCCC1C1CCCCC1` (stereo not drawn), the “hERG current change (%, negative = inhibition) at 10uM” value was 23.3%.
Regarding `CCC1(CC)C(=O)N(C)C(=O)NC1=NC`, the “hERG current change (%, negative = inhibition) at 10uM” value amounted to 10.6%.
`Cc1cc(C)c2c(CN3CCN(Cc4ccc5c(c4)OCO5)CC3)cc(=O)oc2c1`: the “hERG current change (%, negative = inhibition) at 10uM” value is recorded as -75.4%.
Under `CNC(=S)N/N=C(\C)c1ccccc1` stands -18.4%; under `O=C(NN=C1CCCCCC1)c1cccnc1`, 17.3%; under `O=C(Nc1ccc(Br)cc1)C1OCCc2ccccc21` (stereo not drawn), -17%.
Turning to `S=C(Nc1ccc(Oc2ccccc2)cc1)NC1CCCCC1`, the “hERG current change (%, negative = inhibition) at 10uM” value is 8.35%.
On to `O=c1ccc(-c2ccccc2)nn1Cc1ccc(F)cc1`, for which the “hERG current change (%, negative = inhibition) at 10uM” value is given as -12%.
On to `COc1ccc(C2=NN(CC(=O)Nc3cc(C)ccc3C)C(=O)CC2)cc1`, for which the “hERG current change (%, negative = inhibition) at 10uM” value is -10.4%.
In the case of `COc1cccc2cc(C(=O)NCCC3=CCCCC3)c(=O)oc12`, the “hERG current change (%, negative = inhibition) at 10uM” value was determined as 2.79%.
In the case of `CC(OC(=O)c1cc2sccc2n1C)C(=O)NC(C)(C)C` (stereo not drawn), the “hERG current change (%, negative = inhibition) at 10uM” value was 17.3%.
Consider `CC1(C)Oc2ccc3ccc(=O)oc3c2[C@H](O)[C@H]1O`, for which the “hERG current change (%, negative = inhibition) at 10uM” value is given as 21.7%.
With `C=CCn1c(C)cc(C(=O)COC(=O)c2cncc(Br)c2)c1C`, the “hERG current change (%, negative = inhibition) at 10uM” value is -55.9%.
Under `Cc1cccc(C)c1NC(=S)N/N=C/c1ccc(OCCC(C)C)cc1` stands -4.53%; under `CC1CCCCC12NC(=O)N(CC(=O)NCCc1ccccn1)C2=O` (stereo not drawn), -18.2%.
`CC1(C)Cc2c(C#N)c(SCCC#N)nc(N3CCOCC3)c2CS1`: the “hERG current change (%, negative = inhibition) at 10uM” value is on record as -34.7%.
Regarding `COc1cccc(CSc2nnc(C(F)(F)F)n2Cc2ccc(F)cc2)c1`, the “hERG current change (%, negative = inhibition) at 10uM” value is given as -32.5%.
Turning to `Cc1ccc2oc(C(=O)N(Cc3nccn3C)C(C)C)c(C)c2c1`, the “hERG current change (%, negative = inhibition) at 10uM” value is recorded as -30.1%.
In the case of `COc1ccc([N+](=O)[O-])c(OC)c1C(=O)NC(=O)Nc1c(F)c(F)c(F)c(F)c1F`, the “hERG current change (%, negative = inhibition) at 10uM” value is reported as 9.24%.
For the molecule `O=C(c1ccccc1)N1N=C(c2ccccc2)CC1c1ccccc1O` (stereo not drawn), the “hERG current change (%, negative = inhibition) at 10uM” value is on record as -13.6%.
On to `CS(=O)(=O)N(CC(=O)Nc1c(F)cccc1F)c1ccc(C23CC4CC(CC(C4)C2)C3)cc1`, for which the “hERG current change (%, negative = inhibition) at 10uM” value is 20.4%.
In the case of `CCCn1nnnc1NCc1ccc(OC)cc1OC`, the “hERG current change (%, negative = inhibition) at 10uM” value is on record as 8.86%.
As to `CC(C)c1c(C(=O)N/N=C/c2ccc(OCc3ccccc3)cc2)nnn1-c1nonc1N`, the “hERG current change (%, negative = inhibition) at 10uM” value is given as 21.7%.
As for `C/C(CC(=O)NCc1ccc(Cl)cc1)=N\NC(=O)COc1ccc(C)cc1Br`, the “hERG current change (%, negative = inhibition) at 10uM” value is recorded as -33.1%.
As to `CCOC(=O)c1c(NC(=O)CC)sc(C(C)=O)c1C`, the “hERG current change (%, negative = inhibition) at 10uM” value worked out at 0.466%.
With `CN(C)S(=O)(=O)n1cc(/C=C(\NC(=O)c2ccccc2)C(=O)NCCCn2ccnc2)c2ccccc21`, the “hERG current change (%, negative = inhibition) at 10uM” value amounted to 8.31%.
The figure for `CC(=O)c1ccc2c(c1)OCCOCCOCCO2` is 8.76%.
On to `S=C(NC1CCCC1)NC1CC1`, for which the “hERG current change (%, negative = inhibition) at 10uM” value is listed as 35.9%.
With `Cc1ccc(Nc2nc(N)nc(-c3oc4ccccc4c3C)n2)cc1`, the “hERG current change (%, negative = inhibition) at 10uM” value was 4.38%.
For the molecule `CCN(CC)C(=O)c1[nH]cnc1C(=O)NC1CCN(C(=O)OC(C)(C)C)CC1`, the “hERG current change (%, negative = inhibition) at 10uM” value is recorded as 22.7%.
Turning to `CCCCCC1CCC(c2nnc(SCC(C)=O)o2)CC1` (stereo not drawn), the “hERG current change (%, negative = inhibition) at 10uM” value is given as 19.1%.
Turning to `CCCCC(=O)OCC(=O)c1[nH]c(C)c(C(=O)OCC)c1C`, the “hERG current change (%, negative = inhibition) at 10uM” value amounted to 0.828%.
`Cc1ccc(NC(=O)c2ccc(OC(=O)C(C)Oc3ccc(Cl)cc3C)cc2)cc1` (stereo not drawn): the “hERG current change (%, negative = inhibition) at 10uM” value came to 9.34%.
Consider `Cc1cc(=O)n2c(C)n[nH]c2n1`, for which the “hERG current change (%, negative = inhibition) at 10uM” value came out at 4.11%.
In the case of `CCC(C)C(=O)Nc1cc(C(=O)OC)cc(C(=O)OC)c1` (stereo not drawn), the “hERG current change (%, negative = inhibition) at 10uM” value was 8.12%.
`Cc1cccn2c(=O)nc(SCC(=O)c3ccc(Cl)cc3)nc12`: the “hERG current change (%, negative = inhibition) at 10uM” value is listed as -21.9%.
For the molecule `O=C(Cn1cc2c(n1)CCCCC2)NCc1cccs1`, the “hERG current change (%, negative = inhibition) at 10uM” value was -5.87%.
On to `Cc1ccc(/C=N\NC(=O)C2CN(S(=O)(=O)c3ccccc3)CCN2S(=O)(=O)c2ccccc2)cc1` (stereo not drawn), for which the “hERG current change (%, negative = inhibition) at 10uM” value was -18%.
